Experimental data reported in PubChem BioAssay AID1347165 (National Center for Advancing Translational Sciences (NCATS), 2019).
The whole screen tested about 220,000 compounds, of which about 5,700 (2.6%) were called active. Inconclusive results, whose numbers are uncertain, are shown with a selection of clear calls. Calls come from the whole dose curve; as a rule, active = well fitted inhibition curve with a large enough effect; inconclusive = small, poorly fitted or top-dose-only effect; inactive = no such curve, though single readings can be large or run the other way. A potency beside an inconclusive call is a rough fit, not a confirmed value.

Molecular target: Lysine-specific demethylase 5B (Homo sapiens) (UniProt Q9UGL1)
Experiment: Primary screen for KDM5B Histone Demethylases FDH-coupled qHTS; note: nearly all actives have a fitted effect of over 70% in size; for activity change, negative = inhibition: 0% is about no effect
Settings: FDH-coupled NADH fluorescence (FDH is formaldehyde dehydrogenase); activity change, negative = inhibition: at 57.7 µM (top of the series) unless noted
Text: Assay Submitter (PI): Qin Yan, Ph.D. (Yale University) and Xiaodong Cheng, Ph.D. (MD Anderson) This project was funded as part of the NCI NEXT Program and Chemical Biology Consortium (CBC) The histone demethylases, KDM5A and KDM5B catalyze the demethylation of lysine 4 on histone H3 (H3K4me3/2). They are overexpressed in a variety of cancers and have been implicated in cancer cell growth, metastasis, drug resistance, and tumor growth. KDM5A is amplified and overexpressed in breast and gastric cancer; and is translocated in leukemia. While KDM5B is highly expressed in human mammary tumors and breast cancer cell lines, but not in normal adult breast tissue. Moreover, knockdown of KDM5B leads to upregulation of tumor suppressor genes, including BRCA1. The goal of this project is to employ qHTS to identify selective small molecule inhibitors of KDM5A/B demethylase activity to better understand the role of KDM5 in cancer and to develop novel therapies. We employed an FDH-coupled assay previously reported by Sakurai et al. to monitor in vitro KDM5 demethylase activity. Compounds showing dose response inhibition are re-acquired, validated, and tested for non-specific interference with the formaldehyde dehydrogenase (FDH) counterscreen. True inhibitors are validated using an AlphaLisa secondary screen, which employs an H3K4(me2-1)-specific antibody to monitor demethylation of a biotin-tagged H3K4(me3) peptide substrate. Inhibitors are profiled against KDM4A and KDM6A AlphaLisa counterscreens to determine level of demethylase specificity; and against the TruHits counterscreen to eliminate non-specific inhibitory activity on the AlphaLISA detection method. Selective inhibitors identified from the primary and secondary screening are tested in cells using immunofluorescence to monitor global H3K4 tri-methylation as a measure of KDM5A/B inhibition. Early Translation Branch (ETB) National Center for Advancing Translational Sciences (NCATS), Rockville, MD National Institute of Health (NIH), Bethesda, Maryland [1] Sakurai, M et al. A miniaturized screen for inhibitors of Jumonji histone demethylases. Mol Biosyst. 2010 Feb;6(2):357-64. doi: 10.1039/b912993f. Epub 2009 Oct 8.
Materials: 1536-well Black, solid bottom, medium binding assay plate is purchased from Greiner Bio-one. The enzymes (KDM5B) and substrate (H3K4me3/2) are provided by the principal investigators. The buffer for this assay is composed of 50mM HEPES at pH 7.5 with 0.01% Tween-20. FDH coupled Demethylase qHTS protocol: Three microliter enzyme mix (buffer + 200nM KDM5BDeltaAP final concentration) is dispensed into the assay plate using the BioRAPTR Flying Reagent Dispenser (FRD; […]). Compound (at various final concentration) and control solution is pin transferred to the assay plate using the Kalypsys 1536-pin tool apparatus. The assay plate is incubated for 10 min at room temperature followed by addition of 1uL substrate mix (buffer + 100uM ascorbic acid, 50uM ferrous ammonium sulfate, 12.5uM H3K4Me3, 25uM a-ketoglutarate, 0.25 mM NAD+, 0.25 U/mL formaldehyde dehydrogenase using the FRD yielding a total reaction volume of 4 uL. Initial fluorescence (Read1) is detected using the PerkinElmer ViewLux plate reader equipped with 340 nm excitation and 450 nm emission filters. The final fluorescence (Read2) signal is obtained after 30 min of room temperature incubation. Delta RFU is calculated (Read2 - Read1) and is used to generated dose response curves.
Potency is the fitted concentration of half-maximal effect; tags give direction and shape of the fitted curve.

Sequence of UniProt Q9UGL1 (Q9UGL1 whole entry, looked up): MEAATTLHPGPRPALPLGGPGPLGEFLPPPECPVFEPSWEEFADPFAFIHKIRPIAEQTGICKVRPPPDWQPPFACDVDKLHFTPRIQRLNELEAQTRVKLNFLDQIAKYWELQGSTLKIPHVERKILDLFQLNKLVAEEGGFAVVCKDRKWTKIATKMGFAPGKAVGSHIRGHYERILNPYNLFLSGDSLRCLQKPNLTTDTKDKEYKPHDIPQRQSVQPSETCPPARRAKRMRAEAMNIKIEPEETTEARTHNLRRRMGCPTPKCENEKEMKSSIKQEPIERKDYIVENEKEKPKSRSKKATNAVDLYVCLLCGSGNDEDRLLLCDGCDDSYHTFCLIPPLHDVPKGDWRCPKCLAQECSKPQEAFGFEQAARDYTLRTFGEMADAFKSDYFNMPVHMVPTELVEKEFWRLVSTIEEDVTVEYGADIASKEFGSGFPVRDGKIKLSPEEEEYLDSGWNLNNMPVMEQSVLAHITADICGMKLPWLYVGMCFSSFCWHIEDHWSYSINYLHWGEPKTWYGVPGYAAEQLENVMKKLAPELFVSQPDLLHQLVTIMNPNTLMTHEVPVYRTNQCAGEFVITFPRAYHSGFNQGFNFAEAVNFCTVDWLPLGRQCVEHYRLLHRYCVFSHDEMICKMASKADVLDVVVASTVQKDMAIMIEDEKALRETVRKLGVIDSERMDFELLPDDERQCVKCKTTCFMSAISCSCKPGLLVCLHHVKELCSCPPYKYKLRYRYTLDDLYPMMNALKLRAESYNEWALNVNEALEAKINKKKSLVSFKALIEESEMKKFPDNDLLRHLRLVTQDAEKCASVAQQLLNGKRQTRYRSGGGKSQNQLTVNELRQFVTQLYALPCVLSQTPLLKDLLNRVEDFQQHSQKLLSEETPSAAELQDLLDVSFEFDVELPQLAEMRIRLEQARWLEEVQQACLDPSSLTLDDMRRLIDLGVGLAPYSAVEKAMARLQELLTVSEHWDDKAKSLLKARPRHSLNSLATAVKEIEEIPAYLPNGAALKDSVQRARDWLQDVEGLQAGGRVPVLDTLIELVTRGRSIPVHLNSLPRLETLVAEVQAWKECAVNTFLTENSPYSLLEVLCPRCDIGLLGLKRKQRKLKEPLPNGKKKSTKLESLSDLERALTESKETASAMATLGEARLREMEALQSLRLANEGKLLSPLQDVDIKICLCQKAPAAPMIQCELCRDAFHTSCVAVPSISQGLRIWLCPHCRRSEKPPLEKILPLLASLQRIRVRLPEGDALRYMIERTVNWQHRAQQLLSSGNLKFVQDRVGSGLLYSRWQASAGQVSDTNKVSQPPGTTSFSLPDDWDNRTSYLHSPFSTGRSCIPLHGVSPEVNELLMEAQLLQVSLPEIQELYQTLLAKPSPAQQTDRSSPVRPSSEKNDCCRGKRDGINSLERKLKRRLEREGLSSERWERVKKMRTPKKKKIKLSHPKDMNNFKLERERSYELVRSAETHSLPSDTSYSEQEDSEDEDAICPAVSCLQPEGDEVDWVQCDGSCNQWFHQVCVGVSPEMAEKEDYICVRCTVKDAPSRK

Row | SMILES | activity change, negative = inhibition | Potency
1 | CC(=O)Nc1ccc(C(=O)NC[C@@H]2C=C(C)[C@H](CC(=O)NCCN3CCOCC3)C[C@H]2C(C)C)cc1 | inactive: 2.98% | 
2 | O=C(Oc1ccc(Cl)cc1)c1ccc2ncsc2c1 | inactive: -23.9% | 
3 | Cc1cccc(CNC(=O)c2oc3c(c2C)-c2nn(Cc4ccccc4Cl)cc2CC3)c1 |  | inconclusive: 2.24 µM [inhibitor, partial curve, poor fit]
4 | COc1cc(NC(=O)CCn2c(-c3ccccc3)cc(C(C)=O)c2C)cc(OC)c1 |  | inconclusive: 14.1 µM [inhibitor, partial curve, poor fit]
5 | COc1ccc(NC(=O)C(NS(=O)(=O)c2ccc3c(c2)CCCC(=O)N3)C(C)C)c(OC)c1 (stereo not given) |  | inconclusive: 1.26 µM [inhibitor, partial curve, poor fit]
6 | Cc1ccc(-c2cccc(C(=O)N3CCCC(O)(CN4CCCC4)C3)c2)o1 (stereo not given) |  | inconclusive: 12.6 µM [inhibitor, single point]
7 | CNC(=O)c1ccc2cncn2c1 |  | active: 31.6 µM
8 | Cc1nn(CC(=O)N2CCCC2)c(=O)c2nc(C(C)C)sc12 | inactive: -1.23% | 
9 | Cc1ccc(NS(=O)(=O)c2ccc(OCC(=O)NCc3ccc4c(c3)OCO4)cc2)cc1 | inactive: -18.4% | 
10 | O=C(c1ccco1)N1CCN(C(=O)c2nnn3c2COC(c2ccccc2)C3)CC1 (stereo not given) |  | inconclusive: 20 µM [inhibitor, partial curve]
11 | Cc1cc(NC(=O)c2ccc(Br)o2)cc(-c2nc3ccccc3o2)c1O |  | inconclusive: 14.1 µM [inhibitor, partial curve, poor fit]
12 | Cc1ccc(-n2nc(C(=O)N3CCN(c4cc(Cl)ccc4C)CC3)c(=O)n(C)c2=O)cc1 |  | inconclusive: 25.1 µM [inhibitor, single point]
13 | Cc1ccsc1C(=O)N1CCCN(C)c2ccccc21 | inactive: 18.7% | 
14 | C=CCN1CCN(C(=O)c2cccs2)CC1 | inactive: 22.7% | 
15 | CC(=O)Nc1ccc(C)cc1S(=O)(=O)n1cc2c(=O)n(C)c(=O)n(C)c2n1 | inactive: 16.7% | 
16 | COCCN1C(=O)c2ccccc2C(C(=O)NCc2ccccc2OC)C12CCCC2 (stereo not given) |  | active: 17.8 µM
17 | COc1ccc(Cl)cc1NC(=O)c1ccc2nc(Cc3ccccc3)oc2c1 |  | inconclusive: 35.5 µM [inhibitor, partial curve, poor fit]
18 | NCc1cc(NC(=O)c2ccccn2)cc(C(=O)N2CC[C@H]3CNC[C@H]32)c1 |  | inconclusive: 11.2 µM [inhibitor, partial curve, poor fit]
19 | Cc1oc2c(c1C(=O)NC1CCN(C)CC1)CN(Cc1ccc(F)cc1)CC2 |  | inconclusive: 31.6 µM [inhibitor, partial curve]
20 | CCCN(C(=O)c1cc2c(s1)-c1ccccc1OC2)c1ccccc1F |  | inconclusive: 35.5 µM [inhibitor, partial curve, poor fit]
21 | CN1C[C@@H](NS(=O)(=O)c2ccccc2)C[C@H]1c1nc(-c2ccc(F)cc2)no1 |  | inconclusive: 56.2 µM [inhibitor, single point]
22 | CCOC(=O)c1cccc(NC(=O)c2oc3c(c2C)-c2[nH]ncc2CC3)c1 |  | inconclusive: 25.1 µM [inhibitor, partial curve, poor fit]
23 | O=C(Cc1c[nH]c2ncc(-c3ccccc3)cc12)NC1CCOCC1 |  | active: 28.2 µM

Row | SMILES | activity change, negative = inhibition | Potency
24 | Cc1cccc(CN2CCCC3(CCN(Cc4cccc(O)c4)C3)C2)c1 (stereo not given) |  | inconclusive: 31.6 µM [inhibitor, single point]
25 | CC(C)CCN1CCCC2(CC(c3cccc(C(F)(F)F)c3)=NO2)C1 (stereo not given) | inactive: -23.5% | 
26 | Cc1cccc(C)c1NC(=O)C(C)N1CCN(C(=O)c2cccs2)CC1 (stereo not given) | inactive: 8.79% | 
27 | CN1CCN(CCCNc2nc3ccccc3c3nc(-c4ccccc4)nn23)CC1 | inactive: -4.08% | 
28 | COc1ccc(OCC2(C)COc3ccc(C(=O)NCCN4CCOCC4)cc3N2)cc1 (stereo not given) |  | active: 35.5 µM
29 | N#Cc1ccc(CN2CCc3n[nH]c(=O)n3CC2)cc1 |  | inconclusive: 31.6 µM [inhibitor, partial curve, poor fit]
30 | COc1cccc(CNC(=O)C2CCCN(S(=O)(=O)c3ccc4c(ccn4C)c3)C2)c1 (stereo not given) |  | inconclusive: 39.8 µM [inhibitor, single point]
31 | CCOC(=O)c1ccccc1NC(=O)CSc1cn(CC(=O)N2CCCCC2)c2ccccc12 |  | inconclusive: 35.5 µM [inhibitor, single point]
32 | Cc1ccccc1CNC(=O)CCNS(=O)(=O)c1c(C)[nH]c(C)c1C(=O)N1CCCCC1 | inactive: 21.4% | 
33 | N#Cc1c(N)nc2c(c1-c1cccc(F)c1)CCCC2 | inactive: -6.5% | 
34 | O=C(Nc1ccc(Cl)cc1)C1CCCN(S(=O)(=O)c2ccc3[nH]c(=O)ccc3c2)C1 (stereo not given) |  | inconclusive: 39.8 µM [inhibitor, single point]
35 | O=C(/C=C/c1cc(Br)ccc1F)OC1CCCCC1=O (stereo not given) | inactive: 4.48% | 
36 | CCN(CC)C(=O)CC[C@@H]1CNC(=O)[C@@H]2C[C@H](NCc3ccccc3)CN12 |  | inconclusive: 35.5 µM [inhibitor, single point]
37 | Cc1noc(-c2cn(C3CCN(C(=O)c4ccc(F)cc4Cl)CC3)nn2)n1 | inactive: -6.4% | 
38 | CCOC(=O)c1cnc2c(Cl)cccc2c1NCCN1CCOCC1 | inactive: -23.9% | 
39 | COCc1nc2nc(-c3ccccc3)c(-c3cccc([S+](C)(=O)[O-])c3)cc2n1C |  | inconclusive: 31.6 µM [inhibitor, single point]
40 | COc1ccc(NCc2cc3cc4c(cc3n(CC(=O)Nc3ccc(F)cc3F)c2=O)OCO4)cc1 |  | inconclusive: 2 µM [inhibitor, full curve, poor fit]
41 | O=C(Cn1cc(/C=C2\NC(=O)N(Cc3ccccc3Cl)C2=O)c2ccccc21)N1CCOCC1 | inactive: 10.1% | 
42 | CCc1ccccc1NS(=O)(=O)c1ccc(OC)c2ncccc12 | inconclusive: -34.1% [inhibitor] | 
43 | O=C(CN(Cc1ccc(Cl)cc1)C(=O)CN1C(=O)COc2ccccc21)NC1CCCC1 | inactive: 11.2% | 
44 | Cc1c(NC(=O)CCc2cc3n(n2)CCNC3)cccc1-c1nncn1C |  | inconclusive: 11.2 µM [inhibitor, partial curve]
45 | CCCN1C(=O)Cc2ccccc2C1C(=O)O (stereo not given) |  | inconclusive: 0.631 µM [inhibitor, partial curve, poor fit]
